Source: the supplement of paper PMC3334620
In all, about 33,000 sequences were measured (“E-score (-0.5 to 0.5)”: median about -0.016, highest 2% from about 0.32 on). Some of the results follow.

Target: T1, Stp1 (UniProt B3LFK1)
T1 sequence: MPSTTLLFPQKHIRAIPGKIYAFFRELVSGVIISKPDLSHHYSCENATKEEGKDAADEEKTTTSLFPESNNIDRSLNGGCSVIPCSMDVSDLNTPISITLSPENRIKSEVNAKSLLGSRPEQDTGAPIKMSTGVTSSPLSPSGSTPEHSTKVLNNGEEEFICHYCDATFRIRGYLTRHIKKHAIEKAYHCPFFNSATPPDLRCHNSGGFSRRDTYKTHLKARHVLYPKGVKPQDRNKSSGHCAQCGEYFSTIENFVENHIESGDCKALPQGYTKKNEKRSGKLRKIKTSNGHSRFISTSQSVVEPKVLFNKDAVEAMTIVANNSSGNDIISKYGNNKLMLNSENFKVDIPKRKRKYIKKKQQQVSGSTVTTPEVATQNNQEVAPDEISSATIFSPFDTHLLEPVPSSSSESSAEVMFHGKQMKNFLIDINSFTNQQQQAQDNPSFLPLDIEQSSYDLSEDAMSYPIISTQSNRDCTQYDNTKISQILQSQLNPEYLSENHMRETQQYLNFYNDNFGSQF
Assay: PBM E-score (8-mer binding enrichment) (E-score (-0.5 to 0.5)); higher = stronger / more preferred TF binding; most listed sequences are background and not binding sites
Details: protein concentration: 200 nM; construct: GST-full length
Procedure, shortened: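 GST-tagged yeast TFs (full-length or DNA-binding domain) were made by PURExpress in vitro transcription/translation and applied at about 100-200 nM to universal all-10-mer Agilent arrays. The arrays were made double-stranded by primer extension, on fresh or once-stripped slides. Bound protein was detected with fluorescent anti-GST, and scans were normalised with masliner. Each ungapped eight-base word, pooled with its reverse complement, received an E-score (modified Wilcoxon-Mann-Whitney statistic) from the Universal PBM Analysis Suite.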

Sequence | PBM E-score
AGATAGTC | -0.137
CCCATCGC | 0.0933
GTTTCTTA | 0.0294
CGTGACCC | 0.00978
AGTGGCCG | -0.0146
CTCTCGCC | -0.211
GGCTGAAA | 0.103
AGATCGAA | 0.118
ATGTCGGA | -0.0545
GAATTACA | -0.0444
GCGGGAAA | 0.0749
AGGTAGTG | -0.105
AAATTGGA | 0.0945
ACCAGGTA | -0.355
AACGATTG | 0.0458
CCTTGGAG | 0.0228
ACCGTCCT | -0.242
CAATGAGA | -0.114
ACGGTTAT | 0.00425
CCGTTGCG | 0.1
CACACGTA | -0.0636
GAGTGTGA | -0.066
GCAGCGGC | 0.32
AAAGCCGC | 0.369
CGGCCAAC | -0.0869

Sequence | PBM E-score
ATCCCTAA | -0.237
CGGAGGGA | -0.222
GAGAAACA | 0.147
GAGATGGA | -0.151
CTCCGAAA | -0.0604
CGCAAAGC | 0.126
ACGAGGGA | -0.0556
CCACTTGC | -0.039
ACCCATCT | -0.0565
CAAGAACA | 0.108
ATCTCCGC | -0.0598
GGTATGTA | -0.0225
CGACTCGA | -0.115
CGTCGGAA | -0.0303
AAATGAAA | 0.258
AGGCTTAA | -0.0554
ATGTTATA | 0.0942
ATAGGCAA | -0.0665
ACTCGCTC | -0.0965
AGGAACCT | -0.0332
GGCCGCCA | -0.12
CCATCTCC | -0.0527
AGCTCTTA | -0.0314
CTAGATGC | 0.0388
AGGATTCC | -0.192

Sequence | PBM E-score
GACTGTGA | -0.197
AGCCCATA | -0.239
CTCCTGGA | -0.167
GCGCTCGA | 0.0767
TAATTCTA | 0.0907
ACGTCGGG | -0.224
GCCGGACA | 0.218
CCGCGTTA | 0.277
ATCCAGTG | -0.0327
AGTTTAAG | -0.0872
TTAAGCAA | -0.0364
CTGAGACA | -0.0735
GATTAGGA | -0.0114
CTCAGGAA | -0.241
AGATCCAT | -0.0592
CAGAGCGC | -0.131
AAAATCGT | 0.0229
AGGCGCGG | 0.355
GGAGAACC | -0.243
ATGGGAGA | -0.316
CTGTTTCA | 0.038
TAAACTTA | -0.0782
GTGCCAAC | 0.0845
CCGAAAAG | 0.0457
GCGAAGCC | -0.0451

Sequence | PBM E-score
ATCCCTGA | -0.185
AGGGTCCC | -0.277
AGCTTTGG | -0.071
AAACAGAT | 0.158
ACGTAATG | 0.142
GTTCGACA | 0.184
CCGGCTCC | -0.129
AGGGCCAC | -0.0587
AGTGCGGA | 0.224
CAATATCC | -0.0268
CTGTCTCA | -0.0512
CACGATAC | -0.0326
GCGTTTTA | 0.141
CCATTTCC | 0.116
CAGCCGAG | -0.0997
AATTAAAT | 0.0676
TATAGGCA | -0.0593
TAGTTGAA | 0.0675
AGACTCCA | -0.314
AAGTACCA | 0.0493
GTCCAAGA | -0.0868
TCACGCCA | 0.116
AATAATAA | 0.269
AAAACAAT | 0.144
CGTCCACC | -0.107

Sequence | PBM E-score
ATTGCTTG | 0.0754
GGTAAGGA | -0.0448
CTCTCAAA | 0.0595
ATAACAGC | 0.163
CCACGTTC | -0.157
AAGCTGGT | -0.111
TGAAGCCA | 0.0179
GGCTTAAA | 0.173
GCGAGCGC | 0.0226
GCACTCAC | -0.0646
ATCCTTCA | 0.0336
GACTTCAC | -0.186
CATTGGGC | -0.0993
TAGCTCAA | 0.0239
AAAGTTGC | 0.0865
TACCGTCA | 0.0689
CCTGGCGA | -0.164
TGAGCGCA | -0.143
CGCCCAGA | -0.119
AGGGCCCC | -0.324
AGGGGTCC | -0.323
ACCGTTTG | 0.0535
CCTTAGGA | -0.0115
TATTTCAA | 0.151
AATCCAGT | -0.00903

Sequence | PBM E-score
CAACAGGC | -0.106
ATTGTATA | 0.113
TGGCAACA | 0.195
CGGAGGAA | -0.229
AGGTCTTG | -0.288
AAGGGGGA | -0.275
CATGATGA | 0.149
TACGCGAA | 0.0568
AGCATGTG | -0.123
AGGCTAGG | -0.268
AAGGCGGT | 0.105
CGATCATC | -0.156
TTGCACAA | 0.181
ACCGGTGC | -0.144
AATAGTTC | 0.0784
AATAACTC | -0.0209
GGAACGTA | -0.107
CGCGGAAG | -0.0339
GCATTGCC | 0.141
GGATCCAA | -0.0224
CCGCTAAA | 0.0947
CCCAGCCC | -0.301
AAGTATCG | -0.0707
ACGGCGGC | 0.445
AGTGCTGA | -0.144

Sequence | PBM E-score
ACGAACCG | -0.171
CCCTTACC | -0.254
AGCTCTTG | -0.247
ATTAAAGG | 0.116
ATTTCCAC | 0.0875
GAAACTTC | 0.0677
ATCCGTCC | -0.127
CGGGTACC | -0.269
GTATGATA | 0.262
CACCCTTA | -0.0284
ACGTCAAA | 0.147
GCCAGGCA | -0.107
CTTTCGTA | 0.0309
ACGCTAGG | -0.225
GACGTACC | -0.182
AATATTAA | 0.224
AGCCTAAT | -0.0476
ATATATGA | 0.0649
AACAACGC | 0.0779
CGGTCCAG | -0.273
ACCCAAGT | -0.143
AACGATCG | -0.0317
